Assay results taken from PubChem BioAssay AID1963576 (National Center for Advancing Translational Sciences (NCATS), 2024).
Out of some 46,000 compounds screened, about 60 (0.1%) were called active. Another 3% or so got no clear call; they are omitted. The call rests on the fitted dose curve; in most records, active means well fitted inhibition curve with a large enough effect; inconclusive means small, poorly fitted or top-dose-only effect; inactive means no such curve, though single readings can be large or run the other way. The list shows a part of the results.

experiment: Primary qHTS assay for Inhibitors of ovarian cancer metastasis using an organotypic tumor microenvironment (TME) model.; further: nearly all actives have a fitted effect of over 65% in size;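 on Potency: count of GFP cancer cells still attached after washing and fixation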;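 on activity change, negative = inhibition: plate controls were DMSO wells for no effect and tomatine positive control wells for full effect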; settings: SKOV3ip1-GFP adhesion/invasion on 3D omental model, fluorescence; series mostly up to 45.8 µM; activity change, negative = inhibition: at the top concentration
Summary of the method: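 qHTS, 4-pt dose (0.36-46 umol/L); SKOV3ip1-GFP, 1,200 cells/well, no FBS; primary omental fibroblast/mesothelial co-culture 48 h pre-grown; 2 h RT + 16 h 37 C; PBS wash, 4% PFA; GFP count 488/509 nm.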
Potency means the concentration at half of the fitted maximal effect.

Row | SMILES | activity change, negative = inhibition | Potency | outcome
1 | CN1C(C(=O)Nc2ccc(F)cc2F)=CC(c2ccco2)=NS1(=O)=O | inactive: 9.07% |  | 
2 | C[C@H](NCc1ccc2c(c1)nc(NC(=O)c1ccc(-c3cn[nH]c3)s1)n2CCc1ccccc1)C(C)(C)C |  | active: 18.7 µM | 
3 | CCOc1ccc(N(C(=O)Cn2nnc3ccccc32)C(C(=O)NCc2ccccc2)c2ccc(OC)cc2)cc1 (stereo not given) |  |  | inactive
4 | CCOC(=O)c1cc(-c2ccccc2)n(-c2cccc(C(=O)Nc3ccc(OC)cc3)c2)c1C | inactive: -9.02% |  | 
5 | O=C(Cn1c(=O)c2cccn2c2ccccc21)Nc1cc(F)ccc1F | inactive: 2.51% |  | 
6 | CC(C)(C)C1CCc2c(sc(NC(=O)Cn3nnc(-c4ccccc4F)n3)c2C#N)C1 (stereo not given) | inactive: -13.4% |  | 
7 | CCc1ccc(-c2nn(CC(=O)Nc3ccccc3)c3c2cnc2ccc(F)cc23)cc1 | inactive: 2.3% |  | 
8 | COc1ccc(N2CCN(C(=O)c3cn(CC(C)C)c(=O)c4c3c3ccccc3n4C)CC2)cc1 | inactive: -6.25% |  | 
9 | N#CCNC(=O)c1ccc(-c2ccnc(Nc3ccc(N4CCOCC4)cc3)n2)cc1 | inactive: -12.3% |  | 
10 | CC(=O)Nc1cccc(NC(=O)C(=O)NCCc2sc(-c3ccccc3)nc2C)c1 | inactive: 1.03% |  | 
11 | COc1ccc(OCC(=O)OCc2cc(=O)n3nc(C4CCCCC4)sc3n2)cc1 | inactive: -3.62% |  | 
12 | Cc1ccc(CCNC(=O)Cn2nc(-c3ccc(C)cc3)ccc2=O)cc1 | inactive: -2.21% |  | 
13 | CCN(CC)CCNC(=O)c1cn(CC)c2ccc(S(=O)(=O)N3CCOCC3)cc2c1=O | inactive: 2.24% |  | 
14 | CC(=O)N1CCCc2cc(S(=O)(=O)N3CCC(C(=O)NCc4ccc(C)cc4)CC3)ccc21 | inactive: 2.3% |  | 
15 | CCC(C(=O)NCCc1ccc(SC)cc1)n1nc(C)c2sc3ccccc3c2c1=O (stereo not given) | inactive: -3.07% |  | 
16 | COC(=O)c1ccccc1NC(=O)Cn1c(=O)n(-c2cccc(OC)c2)c(=O)c2c(C)c(C(=O)N(C)C)sc21 |  |  | inactive
17 | Cc1onc(-c2ccccc2Cl)c1C(=O)Oc1cc(F)cc(F)c1 | inactive: 0.949% |  | 
18 | COc1ccc(-c2[nH]ncc2C(=O)NCc2ccccc2C)cc1 | inactive: -3.43% |  | 
19 | COCCNCCCn1c(C(=O)CF)c(-c2ccc(C)cc2)c2c(N)ncnc21 | inactive: -12% |  | 
20 | O=C(c1ccc2c(c1)N(Cc1ccc(F)cc1)C(=O)c1ccccc1S2=O)N1CCC(Cc2ccccc2)CC1 (stereo not given) | inactive: 3.89% |  | 

Row | SMILES | activity change, negative = inhibition | Potency | outcome
21 | Cc1ccc(C)c(NC(=O)CSc2ncc(S(=O)(=O)c3ccc(C)c(Cl)c3)c(=O)[nH]2)c1 |  |  | inactive
22 | CSc1cccc(Nc2nc3c(S(=O)(=O)c4ccccc4)nnn3c3ccc(Cl)cc23)c1 | inactive: 4.85% |  | 
23 | O=C(Cn1ncc2ccc(Cl)cc21)NCc1ccc(F)cc1 | inactive: -0.492% |  | 
24 | Cc1ccc(C(=O)Nc2cccc(C(=O)O)c2)cc1S(=O)(=O)N1CCCC1 | inactive: -10.3% |  | 
25 | C=C1[C@H](n2cnc3c(=O)[nH]c(N)nc32)C[C@H](O)[C@H]1CO | inactive: -8.74% |  | 
26 | Cc1c(Cl)cccc1NC(=O)Nc1nnc(N2CCCCCC2)s1 | inactive: 11.6% |  | 
27 | COc1ccccc1NC(=O)c1cccc(S(=O)(=O)N2CCCCCC2)c1 | inactive: 0.909% |  | 
28 | CC1(C)CC(O)CC(C)(C)N1[O] | inactive: 1.98% |  | 
29 | CCc1ccc(CNC(=O)c2ccc(NC(=O)N3CCCCc4ccccc43)cc2)cc1 |  |  | inactive
30 | CCC1CN(C(=O)N2CCC(C(=O)NCc3cccc(C)c3)CC2)c2ccccc2O1 (stereo not given) |  |  | inactive
31 | C=C(C)CSc1nc2sc3c(c2c(=O)n1-c1ccccc1)CC(C(C)C)OC3 (stereo not given) |  |  | inactive
32 | COC(=O)c1scc(-c2ccc(C)cc2)c1S(=O)(=O)Nc1cc(OC)c(OC)c(OC)c1 |  |  | inactive
33 | COc1ccc(CNC(=O)c2c3c(nc4ccccc24)C(=O)N(C2CCCCC2)C3)c(OC)c1 | inactive: 10.6% |  | 
34 | CCOc1ccccc1N(CC)C(=O)c1cc2c(=O)[nH]c3ccc(C)cc3c2s1 | inactive: -0.198% |  | 
35 | CCCCC(CC)CNC(=O)CN1C(=O)CSc2ccc(S(=O)(=O)N3CCOCC3)cc21 (stereo not given) | inactive: 7.36% |  | 
36 | O=C(Cn1c(=O)nc(-c2ccccc2F)c2cc(Cl)ccc21)N1CCN(c2ccccc2F)CC1 | inactive: -3.02% |  | 
37 | CC(=O)Nc1nonc1-c1nnc(SCC(=O)N(C)c2ccccc2)n1C | inactive: -3.42% |  | 
38 | CCN(c1cccc(C)c1)S(=O)(=O)c1ccc2[nH]cc(C(=O)NCCCOC)c(=O)c2c1 |  |  | inactive
39 | Cc1ccc(NC(=O)/C(C#N)=C/c2ccc(C(C)C)cc2)cc1C | inactive: 6.89% |  | 
40 | O=C(Cn1cc(S(=O)(=O)Cc2cccc(Cl)c2)c2ccccc21)NCCc1ccccc1 | inactive: -11.8% |  | 

Row | SMILES | activity change, negative = inhibition | Potency | outcome
41 | Clc1cccc(-n2ncc3c(N4CCCCC4)ncnc32)c1 |  |  | inactive
42 | Cc1nnc(C(C)C)n1C1C[C@H]2CC[C@@H](C1)N2CC[C@H](NC(=O)C1CCC(F)(F)CC1)c1ccccc1 (stereo not given in full) | inactive: 6.93% |  | 
43 | CCOC(=O)c1cnc2c(C)c(Cl)ccc2c1NCCc1ccccc1 | inactive: 0.314% |  | 
44 | COc1ccc(CNC(=O)C(=O)Nc2ccc(OC)cc2OC)cc1 | inactive: 1.73% |  | 
45 | CC(=O)c1ccc(N2CCN(C(=O)CCCCn3c(=O)[nH]c4ccccc4c3=O)CC2)cc1 | inactive: -8.52% |  | 
46 | CCOc1cccc2sc(N3CCN(C(=O)C4CC4)CC3)nc12 |  |  | inactive
47 | Cc1cccc(N2CCN(C(=O)c3ccc4c(c3)N(Cc3cccc(Cl)c3)C(=O)c3ccccc3S4=O)CC2C)c1 (stereo not given) | inactive: 2.82% |  | 
48 | CCOc1cccc(NC(=O)CSc2ncc(-c3ccccc3)[nH]2)c1 | inactive: -0.582% |  | 
49 | CCCn1cc(S(=O)(=O)c2ccc(CC)cc2)c(=O)c2cc(F)c(N(CC)CC)cc21 | inactive: 8.39% |  | 
50 | Cn1c(=O)c2c(-c3ccccc3)n3c(c2n(C)c1=O)C(c1ccco1)Nc1ccccc1-3 (stereo not given) | inactive: 8.92% |  | 
51 | COc1ccc(Cl)cc1CNCCSc1nnnn1C |  |  | inactive
52 | COc1ccc(C(=O)Nc2nc3c(s2)CCCC3)cc1Cl | inactive: -6.93% |  | 
53 | COc1ccc(OC)c(CNC(=O)c2nn(C)c3c2CSc2ccccc2-3)c1 | inactive: -4.25% |  | 
54 | Fc1cccc(Cl)c1Cn1c(-c2cccs2)nc2ccccc21 |  |  | inactive
55 | O=C(O)c1c(CNCc2cccc(F)c2)c2ccccc2n1Cc1ccccc1 | inactive: 8.05% |  | 
56 | Cc1cc(-c2ccc(C)c(S(=O)(=O)NCC3CCN(Cc4ccc(F)cc4)CC3)c2)on1 | inactive: 4.1% |  | 
57 | O=C(NCC(c1ccc2c(c1)OCO2)N1CCOCC1)C(=O)Nc1cccc(Cl)c1 (stereo not given) | inactive: -28.4% |  | 
58 | Cc1cccc(Cn2c(=O)n(CCC(=O)NCCc3ccc(Cl)cc3)c(=O)c3sccc32)c1 | inactive: -2.87% |  | 
59 | CCOc1ccc(NC(=O)c2ccc3c(c2)CCN3S(=O)(=O)c2ccc(Cl)cc2)cc1 | inactive: 11.5% |  | 
60 | O=C(NCc1ccc(F)cc1)c1ccc2nc(N3CCCCC3)sc2c1 |  |  | inactive
